Measured values: PubChem BioAssay AID686978 (National Center for Advancing Translational Sciences (NCATS), 2013)
Out of some 420,000 compounds screened, about 64,000 (15%) were called active. The inconclusive results got no clear call from the source; some entries with a clear call stand among them for comparison. The call rests on the fitted dose curve; in most records, active means well fitted inhibition curve with a large enough effect; inconclusive means small, poorly fitted or top-dose-only effect; inactive means flat fitted curve, though single readings scatter. No potency is given beside an inconclusive call; the fits are too rough.

assay: qHTS for Inhibitors of human tyrosyl-DNA phosphodiesterase 1 (TDP1): qHTS in cells in absence of CPT; settings: DT40 Tdp1-/- hTDP1 cells, no CPT, ATP luminescence, 48 h; activity change, negative = growth inhibition: at 46.2 µM (top of the series) unless noted; further: nearly all actives have a fitted effect of over 55% in size
Procedure, shortened: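 Camptothecin absent (DMSO only). Human TDP1-complemented DT40 knockout cells, 400 cells/well, 37 °C for minimum 48 hr; ATP measured via CellTiter-Glo, 30 min dark incubation, luminescence.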
On the % scale 0 is the no-effect control and ±100 the full control effect; potency means the concentration at half of the fitted maximal effect; tags describe the fitted curve by direction and shape.

Structure (SMILES) | Potency | activity change, negative = growth inhibition
N=c1sccn1CC(=O)Nc1ccc(S(N)(=O)=O)cc1 | inconclusive [inhibitor, single point] | –
O=C(c1cccs1)N1CCCC(c2ccccc2)C1 (stereo unspecified) | active: 18.4 µM | –
COc1ccc2nc(C(F)(F)C(F)(F)F)c(C#N)c(N)c2c1 | inconclusive [inhibitor, single point] | –
CCCCN1CC(COc2ccccc2)Oc2cccc(F)c2S1(=O)=O (stereo unspecified) | inconclusive [inhibitor, single point] | –
Cc1cccc(OCC(=O)Nc2ccc(S(=O)(=O)N3CCCC3)cc2)c1 | inconclusive [inhibitor, single point] | –
Cc1ccc(CCNC(=O)c2cc(-c3ccccc3)n[nH]2)cc1 | inconclusive [inhibitor, single point] | –
CCN(CC)c1ccc(NC(=O)CN2CCN(CC(=O)Nc3ccc(OC)cc3)CC2)cc1 | inconclusive [inhibitor, single point] | –
Cc1cccn2cc(-c3ccccc3)nc12 | – | inactive: -26.8%
FC(F)(F)c1cccc(-c2nnc3ccc(C(F)(F)F)cn23)c1 | – | inconclusive: -32.1% [inhibitor]
CN(C)c1ccc(CC(=O)N2CCCC(c3cc(C(=O)Nc4ccccc4)no3)C2)cc1 (stereo unspecified) | inconclusive [inhibitor, single point] | –
NCc1csc(Nc2cc(Oc3ccccc3)ncn2)n1 | inconclusive [inhibitor, single point] | –
CC(=O)c1ccc(NC(=O)CSc2nnc3ccc(-c4ccc(F)cc4)nn23)cc1 | – | inactive: 1.96%
Cc1cccc(NC(=O)Cc2nnc(NC(=O)Nc3ccccc3F)s2)c1 | – | inactive: -12%
C/C(CCC(C)C)=N\NS(=O)(=O)c1ccc(C)c([N+](=O)[O-])c1 | – | inactive: 20.3%
CCN(C(=O)c1sc2nc3n(c(=O)c2c1C)CCCC3)c1ccccc1F | inconclusive [inhibitor, single point] | –
CC(C)c1ccc(NS(=O)(=O)c2ccc3c(c2)oc(=O)n3C)cc1 | inconclusive [inhibitor, single point] | –
Nc1ccccc1-c1nnc(SCC(=O)Nc2ccccc2OC(F)F)[nH]c1=O | – | inactive: -14.4%
Cc1ccc2c(c1)N(C(=O)NC1CCCCC1)C(C)(C)CC2C (stereo unspecified) | inconclusive [inhibitor, single point] | –
Cc1cccc(C(=O)Nc2ccc(O)c3c(=O)cc(-c4ccccc4Cl)oc23)c1 | – | inconclusive: -31.1% [inhibitor]
CCOC(=O)c1cc(CC)sc1NC(=O)c1cc(OC)c(OC)c(OC)c1 | active: 17.8 µM | –
CC(C)c1ccc(N(C(=O)c2ccco2)C(C(=O)NC2CCCC2)c2ccncc2)cc1 (stereo unspecified) | inconclusive [inhibitor, partial curve] | –
CCc1noc(C)c1C(=O)OCC(=O)NCc1ccccc1OC | inconclusive [inhibitor, single point] | –
Cc1ccc(OCc2cc(C(=O)N(C)Cc3cnc4ccccn34)no2)cc1C | active: 11.6 µM | –
Cc1cccc(NC(=O)C2CCCN2S(=O)(=O)c2cccc3nsnc23)c1C (stereo unspecified) | inconclusive [inhibitor, partial curve] | –

Structure (SMILES) | Potency | activity change, negative = growth inhibition
Cc1ccc([N+](=O)[O-])cc1-c1ccc(/C=N\n2nnnc2N)o1 | inconclusive [inhibitor, partial curve] | –
Cc1ccc(C(C(=O)NCc2ccco2)N(C(=O)CNC(=O)c2cccs2)c2c(C)cccc2C)cc1 (stereo unspecified) | inconclusive [inhibitor, single point] | –
CCC1=C(c2ccc(C)cc2)S(=O)(=O)N=C1N1CCC(C(=O)Nc2ccccc2C(=O)OC)CC1 | active: 18.4 µM | –
COc1ccc(Nc2nnc(C)c3ccccc23)cc1 | inconclusive [inhibitor, single point] | –
Cn1c(/C(C#N)=C(\O)c2cc(Cl)sc2Cl)nc2ccccc21 | inconclusive [inhibitor, single point] | –
Cc1ccc(C(=O)C(C)N2C(=O)NC(C)(c3ccccc3)C2=O)cc1 (stereo unspecified) | inconclusive [inhibitor, partial curve] | –
Cc1cc(-c2cccc(Br)c2)c(C#N)c(N)n1 | – | inactive: -13.2%
Cn1c(=O)c2c(nc(OCc3ccccc3)n2C)n(C)c1=O | inconclusive [inhibitor, single point] | –
Cc1cn2c(=O)cc(COc3ccc(NC(=O)c4ccc(C(C)(C)C)cc4)cc3)nc2s1 | inconclusive [inhibitor, partial curve, poor fit] | –
CN(C)c1ccc(C(CNC(=O)c2ccc(C(C)(C)C)cc2)N2CCCC2)cc1 (stereo unspecified) | active: 7.31 µM | –
COc1ccc(-c2noc(-c3cccs3)n2)cc1OC | – | inconclusive: -35.9% [inhibitor]
COc1ccccc1N1CCN(S(=O)(=O)c2ccccc2)CC1 | inconclusive [inhibitor, partial curve, poor fit] | –
CCOC(=O)c1ccc(NC(=O)CN2C(=O)C(C)(C)c3ccccc32)cc1 | inconclusive [inhibitor, partial curve] | –
CCCCC(=O)NC(Nc1cc(C)ccn1)(C(=O)OCC)C(F)(F)F (stereo unspecified) | inconclusive [inhibitor, single point] | –
O=C1Cc2ccccc2C1=C1C=c2ccccc2=C1 | inconclusive [inhibitor, single point] | –
Nc1c2c(nc3ccccc13)CCCC2=O | – | inactive: -5.71%
COc1ccc(S(=O)(=O)N(CC(=O)Nc2ccc(S(=O)(=O)N3CCOCC3)cc2)Cc2ccc(F)cc2)cc1 | active: 14.6 µM | –
COc1cc2sc(-c3ccccc3OC)c(-c3ccc(OCCN4CCOCC4)cc3)c2cc1OC | inconclusive [inhibitor, single point] | –
CCOC(=O)NCc1ccc(S(=O)(=O)Nc2c(C)cccc2C)cc1 | inconclusive [inhibitor, single point] | –
Cc1cc(C)nc(NNS(=O)(=O)c2ccc(Cl)cc2)n1 | – | inactive: -9.79%
FC(F)(F)COc1ccc(-c2nnc(SCc3c(Cl)cccc3Cl)o2)cn1 | inconclusive [inhibitor, single point] | –
Cc1ccc(C(=O)Nc2cccc(-c3nc(CNC(=O)c4cccc(N(C)C)c4)c(C)o3)c2)s1 | active: 16.4 µM | –
Cc1ccc(C)c(NC(=O)c2cnn(-c3ccc(F)cc3F)c2C2CCNCC2)c1 | active: 9.2 µM | –
O=C(O)c1ccc(N2C(=O)CSC2=S)cc1 | inconclusive [inhibitor, single point] | –

Structure (SMILES) | Potency | activity change, negative = growth inhibition
COc1cccc(N2CCN(C(=O)c3ccc(CS(=O)c4ccccc4Cl)o3)CC2)c1 (stereo unspecified) | active: 0.0052 µM | –
COc1cc2c(cc1OC)CN(C(=O)/C=C/c1cccs1)CC2 | active: 1.03 µM | –
CCC(c1nnnn1Cc1ccco1)N(CCc1ccccc1)Cc1cc2cccc(C)c2[nH]c1=O (stereo unspecified) | active: 29.1 µM | –
COc1ccc(CNC(=O)Cn2cc(C(F)(F)F)ccc2=O)cc1OC | – | inactive: -18.3%
COc1ccc(S(=O)(=O)N2CCN(C(=O)c3cccnc3)CC2)cc1OC | – | inactive: 0.51%
CC(=O)C1=C(O)C(=O)N(Cc2ccccc2)C1c1ccccc1F (stereo unspecified) | inconclusive [inhibitor, single point] | –
O=C(NNc1cc(C(F)(F)F)ccc1Cl)c1ccc(=O)[nH]c1 | – | inactive: -14.6%
CCN1C(=O)[C@@H]2[C@@H](c3ccc(-c4ccc5c(c4)OCO5)cc3)N3CCCC[C@@]3(C(=O)OC)[C@@H]2C1=O | active: 20.6 µM | –
C=CCN1C(=O)C(O)(CC(=O)c2ccc(-n3cccc3)cc2)c2ccccc21 (stereo unspecified) | inconclusive [inhibitor, single point] | –
Fc1ccccc1C(NCCc1ccc(Cl)cc1)c1nnc(-c2ccccc2)o1 (stereo unspecified) | inconclusive [inhibitor, single point] | –
COc1ccccc1-n1c(-c2ccc(F)cc2)coc1=O | – | inactive: 1.93%
CCOC(=O)c1[nH]c2c(c1-c1ccccc1)C(=O)CC(c1ccccc1)C2 (stereo unspecified) | inconclusive [inhibitor, partial curve] | –
O=C(CC(=O)NC1CCCCC1)N/N=C/c1ccccc1[N+](=O)[O-] | – | inactive: 1.41%
CC(C)c1ccccc1N=C1SCCN1C1CCS(=O)(=O)C1 (stereo unspecified) | inconclusive [inhibitor, single point] | –
COc1cccc(OCC(O)CNC(C)c2ccccc2)c1 (stereo unspecified) | inconclusive [inhibitor, partial curve] | –
CC(=O)NC(Cc1ccc(C(C)C)cc1)C(=O)NC1CCN(C(=O)c2cccc(C)c2)CC1 (stereo unspecified) | inconclusive [inhibitor, single point] | –
COC(=O)C1=C(N)Oc2cc(C)n(CC3CCCO3)c(=O)c2C1c1ccc(Cl)cc1 (stereo unspecified) | inconclusive [inhibitor, single point] | –
CCCC12CN3CC(CCC)(CN(C1)C3c1ccc(OCc3ccccc3)cc1)C2=O (stereo unspecified) | inconclusive [inhibitor, partial curve] | –
COc1cccc(Nc2nc(NCC3CCCO3)c3ccccc3n2)c1 (stereo unspecified) | active: 5.17 µM | –
Cc1ccc(NS(=O)(=O)c2ccc(OCC(=O)N3CCOCC3)cc2)cc1 | – | inactive: -22.8%
CCCOC(=O)c1ccc(Oc2cn[nH]c2-c2ccc(O)cc2O)cc1 | inconclusive [inhibitor, partial curve] | –
O=C(NC1CC1)c1ccc2c(c1)C1C3CCC(C3)C1C(c1ccccc1)N2 (stereo unspecified) | active: 25.9 µM | –
CCOC(=O)C1CCN(C(=O)CSc2ccc(Br)cc2)CC1 | – | inactive: -22.7%
